Values joined by “and” are separate entries in the source; they are usually repeats but may differ in a detail not shown here. Identical values can stand only once. About 1,200 (2.5%) of roughly 48,000 compounds were called active. Not shown: some 2% with an inconclusive outcome.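 Rule for the calls: active = activation of at least 60% and not above a set upper limit (about 1 call in 100 departs from these limits); inconclusive = activation of 40% to 60%, or above that upper limit; inactive = activation under 40%.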 The list shows a part of the results.

Chain of UniProt O75388 (O75388 whole entry, looked up, the tested form may be a part): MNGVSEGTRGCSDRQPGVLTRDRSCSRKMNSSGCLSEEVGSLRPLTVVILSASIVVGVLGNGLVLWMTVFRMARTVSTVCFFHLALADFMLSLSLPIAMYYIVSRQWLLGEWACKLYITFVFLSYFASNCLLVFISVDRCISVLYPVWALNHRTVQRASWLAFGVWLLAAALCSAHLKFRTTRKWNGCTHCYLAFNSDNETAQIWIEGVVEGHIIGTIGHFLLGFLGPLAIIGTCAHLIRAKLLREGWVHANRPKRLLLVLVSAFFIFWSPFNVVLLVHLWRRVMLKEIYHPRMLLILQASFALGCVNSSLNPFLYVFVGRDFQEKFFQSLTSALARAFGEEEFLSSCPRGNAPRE

This assay concerns the target Probable G-protein coupled receptor 32 (Homo sapiens) (UniProt O75388). Description: qHTS for Agonists of Human Resolvin D1 Receptor DRV1. Note: 0% is about no effect. Particulars: CHO-K1 GPR32 beta-arrestin PathHunter luminescence, 90 min; at 76.9 µM; hits give high values; zero percent set by DMSO-only wells. An outline of the steps:
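Agonism was scored by beta-Gal fragment complementation (chemiluminescent read, 1 h detection at ambient temperature) reporting beta-arrestin binding to GPR32 in engineered CHO-K1 cells. Compound treatment lasted 90 min at 37 C, normalized to a DMSO basal control.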
In general terms: qHTS replaces the single test concentration by a dilution series.
`Cc1cc(C)c(NC(=O)Cn2nnc(-c3ccccc3)n2)c(C)c1`: the activation is inactive: -10.5%.

Consider `CCOC(=O)C(C)NC(=O)C1CCN(c2ncnc3c2nc2n3CCCCC2)CC1` (stereo not drawn), for which the activation was inactive: 5.2%.

As to `CCOc1ccccc1NC(=O)Cn1c(=O)n(Cc2ccccc2)c(=O)c2cccnc21`, the activation was inactive: -34.7%.

For the molecule `CC(=O)Nc1ccccc1-c1nc2ccccc2n(Cc2cccc(Br)c2)c1=O`, the activation is inactive: -10.4%.

As for `COc1ccc(F)cc1S(=O)(=O)Nc1cccc(-c2ccc(N3CCCCCC3)nn2)c1`, the activation is inactive: -7.48%.

Regarding `Cc1cccn2c(=O)cc(COc3cccc(NC(=O)COc4ccc(F)cc4)c3)nc12`, the activation is inactive: -10.1%.

In the case of `O=C(CN1CCCN(Cc2ccccc2Cl)S1(=O)=O)NCc1ccccc1`, the activation was inactive: -16.1%.

Consider `CC(C)N(Cc1ccccc1)C(=O)Cn1ncc2c([nH]c3ccccc32)c1=O`, for which the activation is inactive: 21.1%.

Regarding `CNC(=O)[C@H]1O[C@@H](n2cnc3c(NCc4ccc(N)cc4)ncnc32)[C@H](O)[C@@H]1O`, the activation is inactive: 2.21%.

Regarding `CCc1nnc(NC(=O)C(=O)c2cc(C)n(-c3ccccc3)c2C)s1`, the activation was inactive: -1.83%.

With `Cc1ccc(CN(C(=O)COc2c(C)cccc2C)C2CCS(=O)(=O)C2)o1` (stereo not drawn), the activation is inactive: -29.4%.

Take `COC(=O)c1nc2n(n1)C(c1cc(OC)ccc1OC)C(C(=O)Nc1ccc(C)cc1C)=C(C)N2` (stereo not drawn): the activation was inactive: 4.26%.

For the molecule `COc1ccc(/C=C\C(=O)NC2CC(=O)N(c3ccccc3)C2)cc1OC` (stereo not drawn), the activation was inactive: -6.19%.

For `COc1cc(NC(=O)c2nc(-c3ccncc3)no2)cc(OC)c1OC`, the activation is inactive: -7.61%.

Regarding `Cc1ccc(NC(=O)C(Cc2c[nH]c3ccccc23)NC(=O)OCC(C)C)cc1` (stereo not drawn), the activation was inactive: 7.29%.

For `Cc1ccc(Cl)cc1N1CCN(CCNC(=O)Nc2ccccc2Cl)CC1`, the activation was inactive: -5%.

Regarding `CC(C)(C)C(=O)NCCc1csc2nc(-c3ccc(F)cc3)nn12`, the activation was inactive: 0.566%.

Regarding `O=C(CCS(=O)(=O)c1cccc2nsnc12)Nc1ccc(F)cc1`, the activation was inactive: 3.86%.

Consider `Cc1ccc(Cl)cc1NC(=O)C(=O)NCC(c1cccnc1)N1CCc2ccccc21` (stereo not drawn), for which the activation was inactive: -20.5%.

`COc1ccc2oc(-c3ccc(C)c(NC(=O)COc4cc(C)cc(C)c4)c3)nc2c1`: the activation is inactive: -10.8%.

For `CCc1ccc(-n2c(=O)c3c4c(sc3n(CC(=O)c3ccc(Cl)cc3)c2=O)CCC4)cc1`, the activation is inactive: -0.438%.

For `CSc1cccc(NC(=O)C2CCN(C(=O)c3cnn(-c4ccccc4)c3-n3cccc3)CC2)c1`, the activation is inactive: 17.2%.

Regarding `Cc1ccc2oc3c(c(=O)c2c1)C1(C(=O)N(C)c2ccccc21)N(CCCO)C3=O` (stereo not drawn), the activation was inactive: -6.47%.

For the molecule `Nc1ccc(O)c(C(=O)O)c1`, the activation is inactive: -27.8%.

With `O=C(c1ccccc1)N1c2ncnn2C2(CCCCC2)[C@@H]2CCCC[C@@H]21`, the activation is inactive: -4.44%.

On to `Cc1ccc(-n2nnc(C(=O)Nc3cc(F)ccc3F)c2C)cc1F`, for which the activation was inactive: -1.31%.

Regarding `Cc1nn(-c2ccc(N3CCOCC3)nn2)c(C)c1CCC(=O)NCc1ccc(F)cc1`, the activation is inactive: 0%.

Consider `Cc1ccccc1C(=O)Nc1cc(-c2ccc(Cl)cc2)nn1-c1ccccc1`, for which the activation was inactive: 30.9%.

For the molecule `Cc1ccc2c(c1)C(c1ccc(F)cc1)N(C(=O)c1ccc(OC(C)C)cc1)CC(=O)N2` (stereo not drawn), the activation is inactive: -12.9%.

As for `COc1cc2[nH]c(=O)n(CCCC(=O)N3CCN(c4cccc(C(F)(F)F)c4)CC3)c(=O)c2cc1OC`, the activation was inactive: -0.437%.

On to `Cc1ccn2c(=O)cc(COc3ccc(NC(=O)c4ccccc4F)cc3)nc2c1`, for which the activation is inactive: 0.256%.

`Cn1ncc2nc(SCC(=O)Nc3ccc(Br)cc3F)n(Cc3ccccc3)c(=O)c21`: the activation is inactive: -12.3%.

For `CCOc1ccc(NC(=O)CSc2nc3c(oc4ccccc43)c(=O)n2CCOC)cc1`, the activation is inactive: 19.7%.

On to `COc1ccc(C(=O)CSc2c(C(C)C)cnc3c2c(=O)n(C)c(=O)n3C)cc1`, for which the activation is inactive: -19.9%.

For `Cc1ccc(NC(=O)C2CCN(c3cc(C)nc4c(-c5ccc(Cl)cc5)c(C)nn34)CC2)c(C)c1`, the activation is inactive: -17.3%.

Take `COc1ccccc1N1CCN(C(=O)CN2C(=O)COc3ccc(S(=O)(=O)N4CCC(C)CC4)cc32)CC1`: the activation was inactive: -17%.

For `Cc1ccc(C)c(CSc2nc3ccncc3n2CC(=O)Nc2ccc(N(C)C)cc2)c1`, the activation was inactive: -20.9%.

`Cc1cccc2nc(-c3cccc(NS(=O)(=O)c4ccccc4)c3)cn12`: the activation is inactive: 12.4%.

Regarding `CCC(C)NC(=O)CSc1nc2c(sc3ccccc32)c(=O)n1Cc1ccccc1Cl` (stereo not drawn), the activation is inactive: -21%.

For `Cc1ccc(C)c(Cn2c3ccccc3c3cnn(CC(=O)NCc4ccccc4)c(=O)c32)c1`, the activation is inactive: 23.9%.

In the case of `Cc1ccc(NC(=O)CSc2nc(-c3ccco3)nc3cc(=O)[nH]n23)cc1C`, the activation is inactive: -7.04%.

As to `Clc1ccccc1CNc1ncnc2c1c(-c1ccccc1)cn2-c1ccccc1`, the activation was inactive: -6.9%.

Regarding `Fc1ccccc1Cn1c(-c2ccccc2)nc2ccccc21`, the activation is inactive: -38.6%.

Take `COCCCNC(=O)CSc1nc2c(sc3ccccc32)c(=O)n1CCCC(=O)NCCOC`: the activation was inactive: -3.08%.

Take `Cc1ccccc1OCc1nnc(SCc2cc(=O)c3cccc(F)c3[nH]2)n1C`: the activation is inactive: 26.1%.

For the molecule `COc1cccc(N2CC(NC(=O)c3cccc(OC)c3OC)CC2=O)c1` (stereo not drawn), the activation was inactive: -5.27%.

Take `CC(=O)c1ccc(NC(=O)COCc2cc(-c3ccco3)on2)cc1`: the activation was inactive: -12.5%.

For `COc1ccc2c(c1)c1c(c(=O)n(-c3cccc(Cl)c3)c(=O)n1CC(=O)N1CCCC1)n2C`, the activation is inactive: -0.718%.

`Cc1ccc(-c2cc(C(=O)Oc3ccccc3)c3cc(C)ccc3n2)cc1`: the activation was inactive: 4.86%.

With `Clc1ccccc1CN1CCc2sccc2C1`, the activation is inactive: 39.4%.

Regarding `CCC1CCCCN1CCCNC(=O)CN1C(=O)CSc2ccc(S(=O)(=O)N3CCOCC3)cc21` (stereo not drawn), the activation was inactive: -16.1%.

Take `COc1ccc2nc(NC(=O)c3nc(S(=O)(=O)Cc4cccc(C)c4)ncc3Cl)sc2c1`: the activation is inactive: -6.13%.

Turning to `CCOC(=O)Cn1nc(C)c(NC(=O)COc2ccc(Cl)cc2C)c1C`, the activation was inactive: 38.9%.

As to `CCOc1ccccc1NC(=O)Cn1ccn(Cc2ccc(C)cc2)c(=O)c1=O`, the activation is inactive: -9.27%.

For the molecule `Cc1cccc2c1-c1sc(C(=O)N(C)c3cccc(C(F)(F)F)c3)cc1CO2`, the activation is inactive: -26.7%.

As to `CC(=O)C1=C(c2ccc(C)c(C)c2)N(C(C)=O)n2c(nnc2-c2ccc(Cl)cc2)S1`, the activation is inactive: -19.4%.

With `CCNC(=O)c1nn(-c2ccccc2C)nc1CO`, the activation is inactive: -12.5%.

In the case of `Cc1cccc(CNC(=O)CCCn2c(=O)c3cccn3c3ccc(F)cc32)c1`, the activation was inactive: -26.2%.

In the case of `Cc1csc2nc(COc3ccccc3NC(=O)c3ccc(C(C)(C)C)cc3)cc(=O)n12`, the activation was inactive: 20%.

On to `N#Cc1cccc(NC(=O)C2CCN(S(=O)(=O)c3ccc4[nH]c(=O)ccc4c3)CC2)c1`, for which the activation was inactive: -5.29%.

Take `Cc1ccccc1-n1nc(CO)c(C(=O)NCc2cccs2)n1`: the activation is inactive: -14%.

For `Cc1ccc(CN2CCN(CC(=O)Nc3ccc(C)c(C)c3)S2(=O)=O)cc1`, the activation was inactive: -10.9%.

For the molecule `O=C(Cn1c(=O)n(-c2ccccc2Cl)c(=O)c2sc3ccccc3c21)NC1CCCCC1`, the activation is inactive: -9.83%.

`Cc1c(NC(=O)c2nc3ccccc3nc2N2CCCCC2)cccc1[N+](=O)[O-]`: the activation was inactive: -37.1%.

`Cc1ccccc1OC(=O)CSc1nnc(-c2ccc(F)cc2)o1`: the activation is inactive: -5.42%.

Regarding `NC(=O)C1=CN(C2OC(COP(=O)(O)OP(=O)(O)OC[C@H]3O[C@@H](n4cnc5c(N)ncnc54)[C@H](OP(=O)(O)O)[C@@H]3O)C(O)C2O)C=CC1` (stereo partly drawn), the activation is inactive: 11.3%.

For the molecule `Cc1c(C)c2c(c(C)c1OC(=O)c1cccnc1)CC[C@@](C)(CCC[C@H](C)CCC[C@H](C)CCCC(C)C)O2`, the activation is inactive: -6.93%.

For the molecule `CCOC(=O)c1cc(C)n(CC2CCC(C(=O)Nc3ccc(C)c(F)c3)CC2)c1C` (stereo not drawn), the activation is inactive: -7.76%.

For `CN(C)CCCN1c2ccccc2CCc2ccc(Cl)cc21`, the activation was inactive: 32.4% and inactive: -9.49%.

With `Cc1ccc(C(=O)Nc2ccc(-c3nc4ccccc4s3)cc2C)cc1C`, the activation was inactive: 20.7%.

For `COC(=O)c1ccccc1NC(=O)Nc1nnc(N2CCC(C)CC2)s1`, the activation was inactive: -1.1%.

As to `CCOc1cc(CNC(=O)NC2COc3ccc(OC)cc3C2)cc(OCC)c1OCC` (stereo not drawn), the activation was inactive: -13%.

`COc1ccc(N2CC(NC(=O)CCCc3ccccc3)CC2=O)cc1` (stereo not drawn): the activation was inactive: -12.5%.

With `CC(=O)c1ccc(NC(=O)CSc2nc(-c3cccc(F)c3)nc3c2c(=O)n(C)c(=O)n3C)cc1`, the activation is inactive: -7.44%.

Consider `Cc1ccc2nc(N(Cc3cccnc3)C(=O)CCS(=O)(=O)c3ccccc3)sc2c1`, for which the activation is inactive: -12.4%.

On to `CCOc1ccc(CCNC(=O)CN2N=C(c3ccccc3)CCC2=O)cc1OCC`, for which the activation is inactive: -19%.

As to `CCCCN(CC)CCCNC(=O)c1cc2c(=O)[nH]c3ccccc3c2s1`, the activation is inactive: 14.6%.

For `CN1C(C(=O)Nc2ccc(F)cc2F)=CC(c2ccc3c(c2)OCO3)=NS1(=O)=O`, the activation was inactive: -15.1%.

On to `Cc1cc(C)cc(NC(=O)CN2C(=O)c3ccccc3Sc3ncccc32)c1`, for which the activation was inactive: -3.94%.

Consider `COc1ccc(CNC(=O)c2ccc3c(c2)nc2n3CCOC2)c(OC)c1`, for which the activation is inactive: -8.83%.

As for `Cc1ccc(CN(Cc2ccco2)C(=O)COc2ccc(C(C)C)cc2)cc1`, the activation is inactive: -20.9%.

As for `Cc1cc(NC(=O)C2=C(O)c3ccccc3S(=O)(=O)N2C)no1`, the activation is inactive: -15.2%.

As for `Cc1ccc(-c2cc(C(F)(F)F)c(C#N)c(SCC(=O)Nc3ccccc3)n2)cc1`, the activation was inactive: -29.6%.
